Laboratory results as given in patent publication US8592455B2 (priority 2008, dated 2013).

These molecules were tested on KMS11 cells (assay: cells). Settings: Homo sapiens, KMS-11, 72 h, read-out: KMS11-lluc EC50.

Q: For N[C@H]1CCC[C@@H](c2ccncc2NC(=O)c2ccc(F)c(-c3c(F)cc(O)cc3F)n2)C1 [Example 32, N-(4-((1R,3S)-3-aminocyclohexyl)pyridin-3-yl)-6-(2,6-difluoro-4-hydroxyphenyl)-5-fluoropicolinamide], which EC50 is on record?
A: 390 nM

Q: How did the EC50 turn out when N[C@H]1CCC[C@@H](c2ccncc2NC(=O)c2ccc(F)c(-c3cc(O)ccc3F)n2)C1 [Example 33, N-(4-((1R,3S)-3-aminocyclohexyl)pyridin-3-yl)-5-fluoro-6-(2-fluoro-5-hydroxyphenyl)picolinamide] was run?
A: 1400 nM

Q: Which EC50 does the source give for N[C@H]1CCC[C@@H](c2ccncc2NC(=O)c2nc(-c3cc(O)ccc3F)ccc2F)C1 [Example 34, N-(4-((1R,3S)-3-aminocyclohexyl)pyridin-3-yl)-3-fluoro-6-(2-fluoro-5-hydroxyphenyl)picolinamide] here?
A: 6000 nM

Q: With C[C@@H]1C[C@H](N)C[C@H](c2ccncc2NC(=O)c2cccc(-c3cc(O)ccc3F)n2)C1 [Example 35, N-(4-((1R,3S,5S)-3-amino-5-methylcyclohexyl)pyridin-3-yl)-6-(2-fluoro-5-hydroxyphenyl)picolinamide] as the molecule, how does the EC50 read?
A: 670 nM

Q: With C[C@@H]1C[C@H](N)C[C@H](c2ccncc2NC(=O)c2cccc(-c3ccc(O)cc3F)n2)C1 [Example 37, N-(4-((1R,3S,5S)-3-amino-5-methylcyclohexyl)pyridin-3-yl)-6-(2-fluoro-4-hydroxyphenyl)picolinamide] as the molecule, how does the EC50 read?
A: 1500 nM

Q: C[C@@H]1C[C@H](N)C[C@H](c2ccncc2NC(=O)c2ccc(F)c(-c3ccc(O)cc3F)n2)C1 [Example 38, N-(4-((1R,3S,5S)-3-amino-5-methylcyclohexyl)pyridin-3-yl)-5-fluoro-6-(2-fluoro-4-hydroxyphenyl)picolinamide] was tested. Which EC50 did it give?
A: 730 nM

Q: Which EC50 does the source give for C[C@@H]1C[C@H](N)C[C@H](c2ccncc2NC(=O)c2nc(-c3ccc(O)cc3F)ccc2F)C1 [Example 39, N-(4-((1R,3S,5S)-3-amino-5-methylcyclohexyl)pyridin-3-yl)-3-fluoro-6-(2-fluoro-4-hydroxyphenyl)picolinamide] here?
A: 6600 nM

Q: How did the EC50 turn out when C[C@@H]1C[C@H](N)C[C@H](c2ccncc2NC(=O)c2nc(-c3c(F)cc(O)cc3F)ccc2F)C1 [Example 42, N-(4-((1R,3S,5S)-3-amino-5-methylcyclohexyl)pyridin-3-yl)-6-(2,6-difluoro-4-hydroxyphenyl)-3-fluoropicolinamide] was run?
A: 3000 nM

Q: C[C@@H]1C[C@H](N)C[C@H](c2ccncc2NC(=O)c2nc(-c3cc(O)ccc3F)ccc2F)C1 [Example 43, N-(4-((1R,3S,5S)-3-amino-5-methylcyclohexyl)pyridin-3-yl)-3-fluoro-6-(2-fluoro-5-hydroxyphenyl)picolinamide] was tested. Which EC50 did it give?
A: 2200 nM

Q: How did the EC50 turn out when COc1ccc(F)c(-c2nc(C(=O)Nc3cnccc3[C@@H]3C[C@H](C)C[C@H](N)C3)ccc2F)c1 [Example 45, N-(4-((1R,3S,5S)-3-amino-5-methylcyclohexyl)pyridin-3-yl)-5-fluoro-6-(2-fluoro-5-methoxyphenyl)picolinamide] was run?
A: 1300 nM

Q: With COc1ccc(F)c(-c2nc(C(=O)Nc3cnccc3[C@H]3C[C@@H](N)[C@H](O)[C@@H](C)C3)ccc2F)c1F [Example 47, N-(4-((1R,3R,4R,5S)-3-amino-4-hydroxy-5-methylcyclohexyl)pyridin-3-yl)-6-(2,6-difluoro-3-methoxyphenyl)-5-fluoropicolinamide] as the molecule, how does the EC50 read?
A: 1300 nM

Q: With CC1(C)C[C@H](N)C[C@H](c2ccncc2NC(=O)c2ccc(F)c(-c3c(F)cccc3F)n2)C1 [Example 49, N-(4-((1R,5R)-5-amino-3,3-dimethylcyclohexyl)pyridin-3-yl)-6-(2,6-difluorophenyl)-5-fluoropicolinamide] as the molecule, how does the EC50 read?
A: 1800 nM

Q: C[C@@H]1C[C@H](N)C[C@H](c2ccncc2NC(=O)c2nc(-c3c(F)cccc3F)c(F)cc2N)C1 [Example 51, 3-amino-N-(4-((1R,3S,5S)-3-amino-5-methylcyclohexyl)pyridin-3-yl)-6-(2,6-difluorophenyl)-5-fluoropicolinamide] was tested. Which EC50 did it give?
A: 310 nM

Q: With N[C@H]1CCC[C@@H](c2ccncc2NC(=O)c2ccc(F)c([C@H]3CC[C@@H](O)CC3)n2)C1 [Example 53, N-(4-((1R,3S)-3-aminocyclohexyl)pyridin-3-yl)-5-fluoro-6-((1s,4s)-4-hydroxycyclohexyl)picolinamide] as the molecule, how does the EC50 read?
A: > 10000 nM

Q: C[C@@H]1C[C@H](N)C[C@H](c2ccncc2NC(=O)c2ccc(F)c([C@H]3CC[C@@H](O)CC3)n2)C1 [Example 54, N-(4-((1R,3S,5S)-3-amino-5-methylcyclohexyl)pyridin-3-yl)-5-fluoro-6-((1s,4s)-4-hydroxycyclohexyl)picolinamide] was tested. Which EC50 did it give?
A: 3800 nM

Q: With C[C@@H]1C[C@H](N)C[C@H](c2ccncc2NC(=O)c2ccc(F)c([C@H]3CC[C@H](O)CC3)n2)C1 [Example 55, N-(4-((1R,3S,5S)-3-amino-5-methylcyclohexyl)pyridin-3-yl)-5-fluoro-6-((1r,4r)-4-hydroxycyclohexyl)picolinamide] as the molecule, how does the EC50 read?
A: 4900 nM

Q: N[C@H]1CCC[C@@H](c2ccncc2NC(=O)c2ccc(F)c([C@H]3CC[C@H](O)CC3)n2)C1 [Example 56, N-(4-((1R,3S)-3-aminocyclohexyl)pyridin-3-yl)-5-fluoro-6-((1r,4r)-4-hydroxycyclohexyl)picolinamide] was tested. Which EC50 did it give?
A: > 10000 nM

Q: Which EC50 does the source give for C[C@@H]1C[C@H](N)C[C@H](c2ccncc2NC(=O)c2ccc(F)c(-c3cc(F)ccc3F)n2)C1 [Example 61, N-(4-((1R,3S,5S)-3-amino-5-methylcyclohexyl)pyridin-3-yl)-6-(2,5-difluorophenyl)-5-fluoropicolinamide] here?
A: 1200 nM

Q: How did the EC50 turn out when C[C@@H]1C[C@H](N)C[C@H](c2ccncc2NC(=O)c2cccc(-c3ccccc3F)n2)C1 [Example 62, N-(4-((1R,3S,5S)-3-amino-5-methylcyclohexyl)pyridin-3-yl)-6-(2-fluorophenyl)picolinamide] was run?
A: 2400 nM

Q: Which EC50 does the source give for C[C@@H]1C[C@H](N)C[C@H](c2ccncc2NC(=O)c2cccc(-c3c(F)cccc3F)n2)C1 [Example 63, N-(4-((1R,3S,5S)-3-amino-5-methylcyclohexyl)pyridin-3-yl)-6-(2,6-difluorophenyl)picolinamide] here?
A: 530 nM

Q: CCCOc1ccc(F)c(-c2nc(C(=O)Nc3cnccc3[C@@H]3CC[C@H](O)[C@H](N)C3)ccc2F)c1 [Example 64, N-(4-((1R,3R,4S)-3-amino-4-hydroxycyclohexyl)pyridin-3-yl)-5-fluoro-6-(2-fluoro-5-propoxyphenyl)picolinamide] was tested. Which EC50 did it give?
A: 5600 nM

Q: CCCOc1ccc(F)c(-c2nc(C(=O)Nc3cnccc3[C@@H]3CC[C@H](O)[C@H](N)C3)c(N)cc2F)c1 [Example 67, 3-amino-N-(4-((1R,3R,4S)-3-amino-4-hydroxycyclohexyl)pyridin-3-yl)-5-fluoro-6-(2-fluoro-5-propoxyphenyl)picolinamide] was tested. Which EC50 did it give?
A: 1200 nM

Q: Cc1ccc(F)c(-c2cccc(C(=O)Nc3cnccc3[C@H]3C[C@@H](N)[C@@H](O)[C@@H](C)C3)n2)c1 [Example 74, N-(4-((1R,3R,4S,5S)-3-amino-4-hydroxy-5-methylcyclohexyl)pyridin-3-yl)-6-(2-fluoro-5-methylphenyl)picolinamide] was tested. Which EC50 did it give?
A: 2900 nM

Q: Which EC50 does the source give for C[C@H]1C[C@@H](c2ccncc2NC(=O)c2cccc(-c3c(F)cccc3F)n2)C[C@@H](N)[C@H]1O [Example 76, N-(4-((1R,3R,4S,5S)-3-amino-4-hydroxy-5-methylcyclohexyl)pyridin-3-yl)-6-(2,6-difluorophenyl)picolinamide] here?
A: 830 nM
